From paper PMC4536226 come the findings set out here.

Chains of the proteins cited; added tags and fusions are not shown. Lines headed by an entry give the natural chain unless they say otherwise; changes in a name come on top. A line that says so, or that is headed by a name, gives the form on record, which may keep a tag or linker.
UniProt P19538: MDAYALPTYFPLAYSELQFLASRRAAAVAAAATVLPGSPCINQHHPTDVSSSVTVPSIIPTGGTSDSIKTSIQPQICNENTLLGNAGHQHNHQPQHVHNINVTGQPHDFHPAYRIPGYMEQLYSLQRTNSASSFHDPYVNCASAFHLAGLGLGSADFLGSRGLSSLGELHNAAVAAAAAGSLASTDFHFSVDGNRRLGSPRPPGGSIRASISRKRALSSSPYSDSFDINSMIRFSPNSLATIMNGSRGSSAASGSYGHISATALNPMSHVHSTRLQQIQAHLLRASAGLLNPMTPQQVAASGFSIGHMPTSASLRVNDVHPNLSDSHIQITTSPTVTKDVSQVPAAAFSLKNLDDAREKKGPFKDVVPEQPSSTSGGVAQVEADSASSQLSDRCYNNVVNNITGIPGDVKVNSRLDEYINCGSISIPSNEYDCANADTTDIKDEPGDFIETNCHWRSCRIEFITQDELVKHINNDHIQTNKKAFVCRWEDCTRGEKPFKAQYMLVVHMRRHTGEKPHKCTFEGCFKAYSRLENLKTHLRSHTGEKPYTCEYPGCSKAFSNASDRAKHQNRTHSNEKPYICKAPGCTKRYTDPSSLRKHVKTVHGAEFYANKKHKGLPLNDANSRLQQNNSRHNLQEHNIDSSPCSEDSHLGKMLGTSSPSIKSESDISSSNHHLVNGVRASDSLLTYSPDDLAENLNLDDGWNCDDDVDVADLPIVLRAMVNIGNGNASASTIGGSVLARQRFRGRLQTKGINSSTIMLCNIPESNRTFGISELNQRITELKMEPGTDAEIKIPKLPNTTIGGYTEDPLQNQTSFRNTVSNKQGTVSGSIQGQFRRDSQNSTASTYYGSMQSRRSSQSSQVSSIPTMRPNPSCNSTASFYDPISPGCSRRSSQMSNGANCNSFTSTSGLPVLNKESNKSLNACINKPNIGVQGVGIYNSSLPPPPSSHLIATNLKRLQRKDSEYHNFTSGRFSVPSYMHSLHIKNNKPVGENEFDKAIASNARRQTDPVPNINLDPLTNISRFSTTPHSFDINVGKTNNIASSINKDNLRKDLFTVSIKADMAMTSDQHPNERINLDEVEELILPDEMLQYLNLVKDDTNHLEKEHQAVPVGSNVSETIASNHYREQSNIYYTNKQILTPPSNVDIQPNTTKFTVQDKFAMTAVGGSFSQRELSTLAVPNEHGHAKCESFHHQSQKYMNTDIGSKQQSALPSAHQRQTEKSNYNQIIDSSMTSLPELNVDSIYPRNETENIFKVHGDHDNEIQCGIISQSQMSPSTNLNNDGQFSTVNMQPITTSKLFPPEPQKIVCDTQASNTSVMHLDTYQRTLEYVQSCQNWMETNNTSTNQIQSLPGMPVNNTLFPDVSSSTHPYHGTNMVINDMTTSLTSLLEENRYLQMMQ
CiΔ212–268 (P19538, form named): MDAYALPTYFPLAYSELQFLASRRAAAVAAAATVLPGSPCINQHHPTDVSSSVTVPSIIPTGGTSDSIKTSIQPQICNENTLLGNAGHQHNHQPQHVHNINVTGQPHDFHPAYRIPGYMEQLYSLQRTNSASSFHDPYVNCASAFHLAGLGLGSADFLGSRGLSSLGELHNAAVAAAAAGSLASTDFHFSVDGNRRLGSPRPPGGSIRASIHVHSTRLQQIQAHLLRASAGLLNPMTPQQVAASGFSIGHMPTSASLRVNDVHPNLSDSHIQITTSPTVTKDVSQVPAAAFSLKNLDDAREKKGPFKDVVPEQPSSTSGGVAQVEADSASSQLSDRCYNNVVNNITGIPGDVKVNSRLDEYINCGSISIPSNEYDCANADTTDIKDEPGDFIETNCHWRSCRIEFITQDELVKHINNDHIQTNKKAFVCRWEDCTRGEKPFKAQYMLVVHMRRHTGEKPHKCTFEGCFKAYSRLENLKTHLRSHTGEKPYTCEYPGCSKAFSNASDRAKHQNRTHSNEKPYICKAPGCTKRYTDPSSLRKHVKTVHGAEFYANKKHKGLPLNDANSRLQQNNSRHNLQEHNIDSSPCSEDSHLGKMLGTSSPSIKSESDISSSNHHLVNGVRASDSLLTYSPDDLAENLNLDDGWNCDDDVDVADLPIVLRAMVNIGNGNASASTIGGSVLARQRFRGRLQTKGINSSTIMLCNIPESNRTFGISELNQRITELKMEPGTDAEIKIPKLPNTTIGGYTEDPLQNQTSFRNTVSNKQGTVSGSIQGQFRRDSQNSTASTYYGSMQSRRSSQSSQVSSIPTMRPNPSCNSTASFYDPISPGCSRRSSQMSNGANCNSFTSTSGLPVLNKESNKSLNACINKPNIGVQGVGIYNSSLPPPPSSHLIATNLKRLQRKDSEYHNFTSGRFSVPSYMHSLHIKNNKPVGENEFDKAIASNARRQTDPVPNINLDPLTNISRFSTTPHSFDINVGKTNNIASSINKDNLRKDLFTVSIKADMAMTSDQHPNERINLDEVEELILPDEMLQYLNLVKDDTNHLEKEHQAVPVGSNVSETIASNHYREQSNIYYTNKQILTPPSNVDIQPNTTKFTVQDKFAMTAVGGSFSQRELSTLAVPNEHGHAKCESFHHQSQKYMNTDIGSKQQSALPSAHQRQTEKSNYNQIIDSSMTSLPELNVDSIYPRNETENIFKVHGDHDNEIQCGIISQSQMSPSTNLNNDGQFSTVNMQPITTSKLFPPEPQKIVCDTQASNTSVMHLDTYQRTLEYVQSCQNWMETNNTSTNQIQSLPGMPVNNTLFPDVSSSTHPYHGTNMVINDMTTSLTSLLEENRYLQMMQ
CiΔ269–346 (P19538, form named): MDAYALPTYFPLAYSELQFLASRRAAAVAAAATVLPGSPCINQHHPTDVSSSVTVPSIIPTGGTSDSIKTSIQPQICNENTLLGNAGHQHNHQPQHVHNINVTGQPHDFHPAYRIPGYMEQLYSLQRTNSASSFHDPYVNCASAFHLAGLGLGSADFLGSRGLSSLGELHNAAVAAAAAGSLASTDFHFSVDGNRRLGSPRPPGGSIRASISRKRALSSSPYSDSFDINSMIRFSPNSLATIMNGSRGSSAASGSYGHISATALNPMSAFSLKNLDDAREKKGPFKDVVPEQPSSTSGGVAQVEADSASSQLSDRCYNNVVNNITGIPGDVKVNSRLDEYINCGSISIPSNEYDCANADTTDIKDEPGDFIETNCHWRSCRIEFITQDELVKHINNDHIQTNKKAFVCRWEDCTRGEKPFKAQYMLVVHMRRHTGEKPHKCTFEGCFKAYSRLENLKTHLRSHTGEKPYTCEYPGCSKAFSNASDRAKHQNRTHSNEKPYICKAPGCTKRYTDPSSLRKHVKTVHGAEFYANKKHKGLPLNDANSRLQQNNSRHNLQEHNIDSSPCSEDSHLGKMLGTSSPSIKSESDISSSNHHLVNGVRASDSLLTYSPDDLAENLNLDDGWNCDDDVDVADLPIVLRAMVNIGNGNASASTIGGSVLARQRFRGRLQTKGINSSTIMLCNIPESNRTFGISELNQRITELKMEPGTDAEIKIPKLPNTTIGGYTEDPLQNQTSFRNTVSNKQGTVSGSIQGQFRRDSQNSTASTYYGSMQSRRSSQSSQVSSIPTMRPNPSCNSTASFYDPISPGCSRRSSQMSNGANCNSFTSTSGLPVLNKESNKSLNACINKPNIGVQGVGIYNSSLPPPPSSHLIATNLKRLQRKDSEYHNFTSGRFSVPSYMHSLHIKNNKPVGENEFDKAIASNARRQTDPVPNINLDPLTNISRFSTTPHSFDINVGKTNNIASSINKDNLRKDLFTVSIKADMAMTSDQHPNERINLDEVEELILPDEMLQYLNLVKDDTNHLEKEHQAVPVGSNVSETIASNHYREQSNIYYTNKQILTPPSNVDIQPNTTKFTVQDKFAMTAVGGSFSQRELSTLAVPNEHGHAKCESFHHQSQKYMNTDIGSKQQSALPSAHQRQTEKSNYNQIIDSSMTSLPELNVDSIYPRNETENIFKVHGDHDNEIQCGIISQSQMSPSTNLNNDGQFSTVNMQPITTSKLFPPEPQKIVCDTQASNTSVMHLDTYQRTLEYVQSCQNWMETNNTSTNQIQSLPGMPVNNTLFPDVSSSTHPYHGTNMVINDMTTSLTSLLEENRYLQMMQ

Assay [1] deals with T1, V5-tagged Suppressor of fused (V5-Su(fu)) (Drosophila melanogaster) (UniProt Q9VG38).
T1 sequence: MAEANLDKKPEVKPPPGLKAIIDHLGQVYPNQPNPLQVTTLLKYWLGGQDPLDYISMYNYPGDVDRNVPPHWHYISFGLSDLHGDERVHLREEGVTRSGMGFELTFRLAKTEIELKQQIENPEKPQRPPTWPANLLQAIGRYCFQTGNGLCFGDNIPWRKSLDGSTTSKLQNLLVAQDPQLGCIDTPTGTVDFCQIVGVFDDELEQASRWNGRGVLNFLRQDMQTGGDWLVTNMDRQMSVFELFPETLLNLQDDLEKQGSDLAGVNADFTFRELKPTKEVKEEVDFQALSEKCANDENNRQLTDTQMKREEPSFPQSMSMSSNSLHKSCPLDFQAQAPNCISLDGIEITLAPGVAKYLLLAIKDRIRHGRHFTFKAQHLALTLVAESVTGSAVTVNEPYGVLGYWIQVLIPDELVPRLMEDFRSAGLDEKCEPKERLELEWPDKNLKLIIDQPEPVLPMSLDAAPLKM
The assay is described as follows: co-IP; S2R+ cells transfected with FLAG-Ci variants and V5-Su(fu), and with dsRNA against Cos2 to deplete endogenous Cos2; lysis in PBS with 1.0% Triton X-100.

Assay [2] concerns the target T2, Myc-tagged Cos2 (Myc-Cos2) (Drosophila) (UniProt O16844).
T2 sequence: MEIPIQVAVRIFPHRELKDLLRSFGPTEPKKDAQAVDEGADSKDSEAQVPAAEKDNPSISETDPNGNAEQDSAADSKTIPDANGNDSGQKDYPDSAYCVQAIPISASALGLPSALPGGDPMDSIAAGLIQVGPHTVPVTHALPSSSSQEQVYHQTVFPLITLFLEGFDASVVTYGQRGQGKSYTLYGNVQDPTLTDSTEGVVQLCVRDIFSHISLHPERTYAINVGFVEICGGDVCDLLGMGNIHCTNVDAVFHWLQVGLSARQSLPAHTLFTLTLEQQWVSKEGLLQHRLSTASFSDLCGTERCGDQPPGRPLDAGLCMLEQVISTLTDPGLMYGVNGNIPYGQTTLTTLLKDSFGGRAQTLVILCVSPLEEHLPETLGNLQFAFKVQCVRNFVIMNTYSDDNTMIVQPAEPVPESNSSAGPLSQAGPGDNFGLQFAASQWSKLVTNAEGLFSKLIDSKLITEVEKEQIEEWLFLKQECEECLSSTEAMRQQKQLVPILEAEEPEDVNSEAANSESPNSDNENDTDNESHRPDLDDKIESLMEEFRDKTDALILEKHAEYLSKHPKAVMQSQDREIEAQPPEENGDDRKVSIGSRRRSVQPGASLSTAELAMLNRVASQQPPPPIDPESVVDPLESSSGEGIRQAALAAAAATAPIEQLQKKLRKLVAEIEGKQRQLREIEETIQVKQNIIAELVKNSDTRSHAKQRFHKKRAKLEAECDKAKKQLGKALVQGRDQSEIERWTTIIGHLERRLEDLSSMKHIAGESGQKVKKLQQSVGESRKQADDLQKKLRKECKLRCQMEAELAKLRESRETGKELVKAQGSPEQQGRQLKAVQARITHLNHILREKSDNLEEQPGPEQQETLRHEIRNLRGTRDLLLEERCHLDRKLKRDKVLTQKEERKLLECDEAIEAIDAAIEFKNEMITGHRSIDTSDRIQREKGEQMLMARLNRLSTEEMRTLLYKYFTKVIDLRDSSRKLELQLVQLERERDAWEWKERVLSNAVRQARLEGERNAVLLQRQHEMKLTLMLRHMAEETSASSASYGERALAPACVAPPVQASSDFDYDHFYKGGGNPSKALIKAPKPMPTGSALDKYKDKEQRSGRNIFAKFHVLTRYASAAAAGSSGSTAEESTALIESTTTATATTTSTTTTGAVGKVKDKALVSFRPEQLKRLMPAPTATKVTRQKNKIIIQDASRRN
Description: co-IP; S2R+ cells transfected with FLAG-Ci variants and Myc-Cos2, and with dsRNA against Su(fu); either anti-FLAG or anti-Myc IP; lysis in PBS with 1.0% Triton X-100.

No constants are given. Whether binding was seen depends on the method and setting. In cells and extracts the contact can be indirect. Some results given as binding are weak or reduced against the parent protein; the word gives no strength. Sequences can lack the tags named with a protein.

For CiΔ212–268 (from UniProt P19538 1-1397), the binding entry in assay [1] is reported as “binds weakly”; in assay [2], “binds”. For CiΔ269–346 (from UniProt P19538 1-1397), the binding entry in assay [2] is listed as “binds”.

As to “Ci347C (from UniProt P19538 347-1397) (domain or fragment)”, in assay [2], the binding result was “binds”. “N-terminally FLAG-tagged Ci (FLAG-Ci) (from UniProt P19538 1-1397)”: the binding result in assay [1] and in assay [2] was “binds” each time.
